“And” between values parts separate entries of the source, which are not always exact repeats. Equal values may be shown once. This list was built around the results that the source calls inconclusive (neither active nor inactive); the mix of calls is not that of the screen. For part of these data: A potency beside an inconclusive call is a rough fit, not a confirmed value. Some structures have more than one record in an assay (separate samples or runs), and their calls can disagree. The source made the active and inactive calls. Unless noted, the call rests on the fitted dose curve; in most records, active means well fitted curve in the direction sought with a large enough effect in the repeat runs; inconclusive means weak or mixed curves; inactive means no such curve, though single readings can be large; an effect the other way counts as inactive or inconclusive.
Legend:
[1] = qHTS RealTime-Glo MT Cell Viability Assay in HEK293 cells - 24 hour (AID 1224886); further: nearly all actives have a fitted effect of over 50% in size; further: potency means the concentration at half of the fitted maximal effect
Outline: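 Luminescence generated by NanoLuc from substrate produced by living HEK293 cells served as the viability signal. Each value reflects the reading at its stated time point during continuous 40 h compound exposure at 37 C.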

[2] = qHTS RealTime-Glo MT Cell Viability Assay in HEK293 cells - 8 hour (AID 1224887); further: nearly all actives have a fitted effect of over 50% in size; further: potency means the concentration at half of the fitted maximal effect
Outline: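 Viable HEK293 cells reduce a cell-permeant prosubstrate; the product diffuses out and is consumed by NanoLuc in the medium to give light. Compounds went in after a 5 h incubation and plates were read over the treatment course.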

[3] = A CellTox Green Cytotoxicity Assay to monitor cytotoxicity in HEK293 cells - 16 hour (AID 1224888); further: potency means the concentration at half of the fitted maximal effect; nearly all actives have a fitted effect of over 35% in size
Outline: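 Fluorescence intensity, read at 0, 8, 16, 24, 32 and 40 h of compound treatment, reflected dye binding to DNA of dead HEK293 cells; compounds (23 nL, DMSO) were added 5 h after plating cells with reagent.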

[4] = qHTS assay to identify small molecule antagonists of the androgen receptor (AR) signaling pathway using the MDA cell line in the presence of 0.5 nM R1881 - cell viability counter screen (AID 1259242); further: potency means the concentration at half of the fitted maximal effect; nearly all actives have a fitted effect of over 45% in size
Outline: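 Viability of MDA-kb2 cells was multiplexed with the luciferase AR readout; after 16 hr with compounds and R1881 at 0.5 nM final, CellTiter-Fluor fluorescence was recorded.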

[5] = qHTS assay to identify small molecule HDAC inhibitors - cell viability counter screen (AID 1259365); further: nearly all actives have a fitted effect of over 50% in size; further: potency means the concentration at half of the fitted maximal effect
Outline: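 Viability readout: CellTiter-Glo luminescence. Wild-type HCT-116 cells, 2hr compound treatment following overnight attachment at 37 C.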

[6] = qHTS assay to identify small molecule agonists of the sonic hedgehog signaling (Shh) pathway - cell viability counter screen (AID 1259366); further: potency means the concentration at half of the fitted maximal effect; nearly all actives have a fitted effect of over 50% in size
Outline: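 Viability measured fluorometrically (CellTiter-Fluor, 1hr, 37C) in 3T3 Gli1-Luc reporter cells after 23hr compound exposure within a 24hr incubation at 37C/5% CO2.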

[7] = qHTS assay to identify small molecule antagonists of the sonic hedgehog signaling (Shh) pathway (AID 1259369; calls by dose curve; further: nearly all actives have a fitted effect of over 45% in size; further: potency means the concentration at half of the fitted maximal effect)
Outline: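 For antagonist detection, the reporter line received test compounds together with conditioned medium, incubated 24hr at 37 C, 5% CO2, then luminescence was recorded following 30min room-temperature luciferase reagent incubation.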

[8] = qHTS assay to identify small molecule antagonists of the estrogen receptor alpha (ER-alpha) signaling pathway using the BG1 cell line in the presence of 0.1 nM 17-beta-estradiol - cell viability counter screen (AID 1259241); further: nearly all actives have a fitted effect of over 40% in size; further: potency means the concentration at half of the fitted maximal effect
Outline: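 The cell line endogenously expresses full-length ER-alpha and carries four EREs driving luciferase. Cells are cultured 5 days hormone-free, treated 22 hr with compounds and 0.1 nM estradiol, then viability is read by fluorescence.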

[9] = molecular target: Estrogen receptor (Homo sapiens) (UniProt P03372); test: qHTS assay to identify small molecule antagonists of the estrogen receptor alpha (ER-alpha) signaling pathway using the BG1 cell line in the presence of 0.1 nM 17-beta-estradiol (AID 1259244)
Outline: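 Estradiol at 0.1 nM (final) stimulates the endogenous ER-alpha of VM7Luc4E2 cells carrying an ERE-driven luciferase; compounds are co-incubated 22 h at 37C and luciferase output quantified by luminescence.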

[10] = qHTS assay to identify small molecule antagonists of the sonic hedgehog signaling (Shh) pathway - cell viability counter screen (AID 1259367); further: potency means the concentration at half of the fitted maximal effect; nearly all actives have a fitted effect of over 55% in size
Outline: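 NIH/3T3-derived Gli1-Luc reporter cells, 2,000/well, plated 4 hr before compound addition, then stimulated with conditioned medium for 24 hr at 37C. Viability measured in the same wells by CellTiter-Fluor fluorescence, reagent added at 23 hr for 1 hr.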

[11] = qHTS RealTime-Glo MT Cell Viability Assay in HepG2 cells - 0 hour (AID 1224889); further: nearly all actives have a fitted effect of over 50% in size; further: potency means the concentration at half of the fitted maximal effect
Outline: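 Tox21 10K library screened in qHTS format on HepG2 cells carrying RealTime-Glo reagents. Compounds were added after a 5 h preincubation, and the luminescent signal from continuous culture was measured repeatedly during 40 h treatment.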

[12] = A CellTox Green Cytotoxicity Assay to monitor cytotoxicity in HepG2 cells - 8 hour (AID 1224890); further: nearly all actives have a fitted effect of over 45% in size
Outline: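 Using 1536-well format, dye-containing HepG2 suspension was seeded, allowed 5 h at 37 C/5% CO2, dosed by pintool with compounds, positive and negative controls, and imaged for fluorescence across 40 h.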

[13] = qHTS assay to identify small molecule phospholipidosis (PLD) inducers (AID 1259344; active means well fitted curve in the direction sought with a large enough effect; inconclusive means small, poorly fitted or top-dose-only effect, or another doubt; inactive means no such curve, though single readings can be large; an effect the other way counts as inactive or inconclusive)
Outline: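 HepG2 cells, 900/well, treated with compound plus LipidTOX Red for 24 h at 37 C; amiodarone positive and DMSO negative controls. Fixed with paraformaldehyde/Hoechst, then high-content imaging scored LipidTOX pit count and integrated intensity per well and per cell.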

[14] = qHTS assay to identify small molecule HDAC inhibitors (AID 1259364);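 further: wild-type HCT-116 cells with endogenous class I/II HDAC activity; potency means the concentration at half of the fitted maximal effect; nearly all actives have a fitted effect of over 45% in size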
Outline: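 Read-out: luminescence of HDAC-Glo I/II reagent, 30 min RT, reflecting class I/II deacetylase activity in whole HCT-116 cells pre-exposed 2 h to DMSO-dissolved compounds.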

[15] = molecular target: Estrogen receptor beta (Homo sapiens) (UniProt Q92731); test: qHTS assay to identify small molecule agonists of the estrogen receptor beta (ER-beta) signaling pathway (AID 1259377; active means well fitted activation curve with a large enough effect in the signal ratio in the repeat runs, not every such curve was filed as active; inconclusive means weak or mixed curves, or effect the other way; the % refers to the signal ratio; further: potency means the concentration at half of the fitted maximal effect); details: ER-beta-UAS-bla HEK293T, beta-lactamase FRET ratio, 16 h; activation: at 92.4 µM (top of the series) unless noted
Outline: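 A UAS-controlled beta-lactamase reporter in ER-beta-UAS-bla HEK293T cells reports receptor activation. Compounds act for 16 hr at 37C in 2% charcoal-stripped serum, and a FRET substrate is read by fluorescence after 2 hours.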
Tags describe the fitted curve by direction and shape or compound fluorescence and quenching.

Sequence of UniProt P03372 (P03372 whole entry, looked up): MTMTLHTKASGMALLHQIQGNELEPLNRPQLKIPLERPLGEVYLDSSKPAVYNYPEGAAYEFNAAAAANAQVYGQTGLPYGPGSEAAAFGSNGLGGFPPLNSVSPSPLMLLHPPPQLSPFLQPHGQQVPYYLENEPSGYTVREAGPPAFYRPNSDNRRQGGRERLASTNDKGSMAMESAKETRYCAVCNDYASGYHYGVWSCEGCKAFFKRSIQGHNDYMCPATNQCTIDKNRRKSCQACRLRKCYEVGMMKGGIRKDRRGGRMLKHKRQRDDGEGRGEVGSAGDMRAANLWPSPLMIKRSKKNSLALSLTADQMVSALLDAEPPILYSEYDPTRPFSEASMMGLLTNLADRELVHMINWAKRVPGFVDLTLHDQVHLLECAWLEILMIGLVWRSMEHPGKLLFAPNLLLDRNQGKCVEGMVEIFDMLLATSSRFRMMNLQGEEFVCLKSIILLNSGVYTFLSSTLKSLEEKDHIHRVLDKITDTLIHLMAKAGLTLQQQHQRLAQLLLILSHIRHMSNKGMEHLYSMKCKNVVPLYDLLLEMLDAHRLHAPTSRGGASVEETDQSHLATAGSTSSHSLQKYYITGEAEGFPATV
Sequence of UniProt Q92731 (Q92731 whole entry, looked up): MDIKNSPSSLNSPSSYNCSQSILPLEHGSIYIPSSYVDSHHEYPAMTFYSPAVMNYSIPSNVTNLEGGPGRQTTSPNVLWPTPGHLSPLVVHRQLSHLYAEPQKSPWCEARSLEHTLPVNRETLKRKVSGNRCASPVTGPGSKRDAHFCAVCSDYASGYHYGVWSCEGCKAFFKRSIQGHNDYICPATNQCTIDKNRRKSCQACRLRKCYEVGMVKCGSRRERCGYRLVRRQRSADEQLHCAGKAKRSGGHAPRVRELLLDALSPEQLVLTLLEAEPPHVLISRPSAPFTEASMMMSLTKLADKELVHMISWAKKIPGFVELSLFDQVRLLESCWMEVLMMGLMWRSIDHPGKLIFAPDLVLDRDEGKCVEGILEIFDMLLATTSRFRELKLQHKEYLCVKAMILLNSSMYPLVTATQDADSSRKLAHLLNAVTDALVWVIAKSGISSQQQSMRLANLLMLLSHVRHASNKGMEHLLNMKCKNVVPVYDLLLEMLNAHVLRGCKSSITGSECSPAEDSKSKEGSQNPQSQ

## O=C1C=CC(=O)N1c1cccc(N2C(=O)C=CC2=O)c1
[1]
  Potency: active: 11 µM
[2]
  Potency: active: 19.5 µM
[3]
  Potency: inconclusive: 12.3 µM [activator, partial curve, poor fit]
[4]
  Potency: active: 61.1 µM
[5]
  Potency: inconclusive: 68.6 µM [cytotoxic, single point]
[6]
  Potency: active: 8.63 µM

## CN(C)CCCCCCN(C)C
[1]
  Potency: inactive

## CC(C=O)Cc1ccc(C(C)C)cc1 (stereo not drawn)
[1]
  Potency: inactive

## CCCCCCCCCCO[C@@H]1O[C@H](CO)[C@@H](O)[C@H](O)[C@H]1O
[1]
  Potency: inconclusive: 21.9 µM [cytotoxic, partial curve]

## CCCCCSCCCCC
[1]
  Potency: inactive
[2]
  Potency: inactive

## O=C(O)COc1ccc2ccccc2c1
[1]
  Potency: inactive

## CC(c1cc(C(C)(C)C)cc(C(C)(C)C)c1O)c1cc(C(C)(C)C)cc(C(C)(C)C)c1O
[1]
  Potency: inconclusive: 19.5 µM [cytotoxic, partial curve]

## CC1(C)[C@@H]2CC[C@@]1(C)[C@H](O)C2
[1]
  Potency: inactive

## CC1(C)CC(N=C=O)CC(C)(CN=C=O)C1 (stereo not drawn)
[1]
  Potency: inactive

## CC(C)OC(=O)C(O)(CC(=O)O)CC(=O)O
[1]
  Potency: inactive

## O=C(O)CN(CCN(CC(=O)O)CC(=O)O)CCN(CC(=O)O)CC(=O)O
[1]
  Potency: inconclusive: 0.0414 µM [cytotoxic, single point]
[2]
  Potency: inconclusive: 0.0414 µM [cytotoxic, single point]

## CC(=O)c1ccc2ccc3ccccc3c2c1
[1]
  Potency: inconclusive: 38.7 µM [cytotoxic, partial curve]
[2]
  Potency: inconclusive: 38.7 µM [cytotoxic, partial curve]

## CCCCC(CC)COC(=O)C(C#N)=C(c1ccccc1)c1ccccc1 (stereo not drawn)
[1]
  Potency: inconclusive: 43.7 µM [cytotoxic, partial curve]
[2]
  Potency: inconclusive: 43.7 µM [cytotoxic, partial curve]
[7]
  Potency: inconclusive: 17.2 µM [inhibitor, full curve]

## Cc1ccc(C(C)(C)C)cc1
[1]
  Potency: inconclusive: 43.6 µM [cytotoxic, partial curve, poor fit]
[8]
  Potency: inactive
[7]
  Potency: inactive

## CC(C)=CCC1=C(O)c2ccccc2C(=O)C1=O
[1]
  Potency: inconclusive: 38.7 µM [cytotoxic, partial curve]
[2]
  Potency: inconclusive: 24.4 µM [cytotoxic, partial curve]
[8]
  Potency: inconclusive: 43 µM [cytotoxic, partial curve]
[4]
  Potency: inconclusive: 54.2 µM [cytotoxic, partial curve, poor fit]
[9]
  Potency: inconclusive: 4.83 µM [inhibitor, full curve]
[6]
  Potency: inconclusive: 68.2 µM [cytotoxic, single point]
[10]
  Potency: inconclusive: 30.5 µM [cytotoxic, partial curve]
[7]
  Potency: inconclusive: 68.2 µM [inhibitor, single point]

## CC(=O)[C@@]1(O)CC[C@H]2[C@@H]3CCC4=CC(=O)CC[C@]4(C)[C@H]3CC[C@@]21C
[1]
  Potency: inconclusive: 24.5 µM [cytotoxic, partial curve]
[11]
  Potency: active: 6.16 µM and active: 8.49 µM
[7]
  Potency: inconclusive: 19.3 µM [inhibitor]

## CCC(=O)O
[1]
  Potency: inactive
[12]
  Potency: inactive

## CS(=O)(=O)c1ccc([C@@H](O)[C@@H](CF)NC(=O)C(Cl)Cl)cc1
[1]
  Potency: inactive
[2]
  Potency: inactive
[7]
  Potency: inconclusive: 0.119 µM [inhibitor, single point]

## Cc1ccc(-n2nc(C(C)(C)C)cc2NC(=O)Nc2ccc(OCCN3CCOCC3)c3ccccc23)cc1
[1]
  Potency: inconclusive: 19 µM [cytotoxic, partial curve]
[2]
  Potency: inconclusive: 16.9 µM [cytotoxic, partial curve]
[13]
  Potency: inactive

## Cc1onc(-c2ccccc2)c1-c1ccc(S(N)(=O)=O)cc1
[1]
  Potency: inconclusive: 21.3 µM [cytotoxic, partial curve]
[2]
  Potency: inconclusive: 23.9 µM [cytotoxic, partial curve, poor fit]
[6]
  Potency: inconclusive: 29.8 µM

## CC(C)C(=O)c1c(C(C)C)nn2ccccc12
[1]
  Potency: inactive
[11]
  Potency: inactive
[7]
  Potency: inconclusive: 0.376 µM [inhibitor, full curve]

## C=CCOC(=O)c1ccccc1C(=O)OCC=C
[1]
  Potency: inconclusive: 21.9 µM [cytotoxic, single point]
[2]
  Potency: inconclusive: 21.9 µM [cytotoxic, single point]
[5]
  Potency: inactive
[7]
  Potency: inactive

## COC(=O)c1ccc(C(=O)OC)cc1
[1]
  Potency: inconclusive: 35.1 µM [cytotoxic, partial curve, poor fit]
[2]
  Potency: inconclusive: 35.1 µM [cytotoxic, partial curve, poor fit]
[4]
  Potency: inconclusive: 13.9 µM [cytotoxic, full curve]
[9]
  Potency: active: 6.19 µM
[14]
  Potency: inconclusive: 55.2 µM [inhibitor, partial curve] and inconclusive: 48.6 µM [inhibitor]
[10]
  Potency: active: 2.2 µM
[7]
  Potency: active: 0.982 µM
[15]
  Potency: inconclusive: 6.95 µM [rising, full curve]

Reference: PubChem BioAssay (Tox21)
